Measured values from patent US20240043504A1.
Values joined by “and” are separate entries in the source; they are usually repeats but may differ in a detail not shown here. Identical values can stand only once.

biological target: SARS-CoV-2 Spike Protein (RBD)(R319-F541).mmH (SARS-CoV-2); test: Luminex, supernatant; conditions: remark: other sources report otherwise

Row | Binder | MFI
1 | mAb10932 (antibody) heavy: EVQLVESGGGLVQSGGSLRLSCAASGLTVSSNYMSWVRQAPGKGLEWVSVIYSGGSTFYSDSVKGRFTISRHNSKNTLYLQMNSLRAEDTAVYYCARARGDAFDIWGQGTMVTVSS[human IgG1 constant region left out] light: DIQMTQSPSSLSASVGDRVTITCQASQGISNYLNWYQQKPGKAPKLLISDASNLETGVPSRFSGSGSGTDFTFTISSLQPEDIATYYCQQYDNLRFFTFGPGTKVDIKRTVAAPSVFIFPPSDEQLKSGTASVVCLLNNFYPREAKVQWKVDNALQSGNSQESVTEQDSKDSTYSLSSTLTLSKADYEKHKVYACEVTHQGLSSPVTKSFNRGEC | 30000 MFI and 30100 MFI
2 | mAb10967 (antibody) heavy: EVQLVESGGGLVQPGGSLRLSCAASGFTVSSNYMSWVRQAPGKGLEWVSVIYPGGSTFYADSVKGRFTISRDNSKNTLYLQMNSLRAEDTAVYYCARDQRDFAWGQGTLVTVSS[human IgG1 constant region left out] light: DIQMTQSPSSLSASVGDRVTITCQASQDISNYLNWYQQKPGKAPKLLIYDASNLETGVPSRFSGSGSGTDFTFTISGLQPEDIATYYCQQYDNLPPTFGQGTRLEIKRTVAAPSVFIFPPSDEQLKSGTASVVCLLNNFYPREAKVQWKVDNALQSGNSQESVTEQDSKDSTYSLSSTLTLSKADYEKHKVYACEVTHQGLSSPVTKSFNRGEC | 28500 MFI and 26500 MFI
3 | mAb10956 (antibody) heavy: EVQLVESGGGLVQPGGSLRLSCAASGLTVSSNYMSWVRQAPGKGLEWVSVIYSGGSTFYADSVKGRFTISRDNSKNTLYLQMNSLRAEDTAVYYCARDLIKYGMDVWGQGTTVTVSS[human IgG1 constant region left out] light: DIQMTQSPSSLSASVGDRVTITCQASQDISNYLNWYQQKPGKAPKLLIYDASNLETGVPSRFSGSGSGTDFTFTISSLQPEDIATYYCQQYDNLPPHFGPGTKVDIKRTVAAPSVFIFPPSDEQLKSGTASVVCLLNNFYPREAKVQWKVDNALQSGNSQESVTEQDSKDSTYSLSSTLTLSKADYEKHKVYACEVTHQGLSSPVTKSFNRGEC | 27900 MFI and 25700 MFI
